# Source: the supplement of paper PMC8183993
# Values joined by “and” are separate entries in the source; they are usually repeats but may differ in a detail not shown here. Equal values may be shown once. Where a name gives a salt, the structure may show the parent alone. ± gives the standard deviation of the averaged measurements. Whole data set: some 3,100 compounds, median “mean cytoplasmic OPP incorporation (global translation) relative to DMSO” near 100, cut for the lowest 2% near 56. The list shows a part of the results.
# Test system: U2OS
# Assay: mean cytoplasmic OPP incorporation (global translation) relative to DMSO (% of DMSO); higher = more protein synthesis
# Details: 10 µM; 24 h
# Procedure: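 Primary image-based screen in U2OS cells: compounds at 10 uM for 24 h, then a 1 h o-propargyl-puromycin (OPP) pulse, click labelling, and high-throughput microscopy. Mean cytoplasmic OPP intensity and nuclei count were normalised to DMSO wells within each plate (DMSO = 100) and averaged over triplicate plates.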
row,Structure (SMILES),mean cytoplasmic OPP incorporation
1,CNCCc1ccccn1 [Betahistine mesylate],97.5
2,Cc1nc2c([nH]1)-c1ccccc1N(C(=O)c1ccc(NC(=O)c3ccccc3-c3ccccc3)cc1)CC2 [Conivaptan HCl (Vaprisol)],110
3,c1ccc2c(CCNc3ccc(Nc4ccncc4)cc3)c[nH]c2c1,103
4,CC(C)CCNC(=O)[C@H](CC(C)C)NC(=O)[C@H]1O[C@@H]1C(=O)O,101
5,NCCCCCC(=O)O [Aminocaproic acid],94.5
6,CN(C)C(=N)NC(=N)N [Metformin hydrochloride],101
7,COc1c(C)cnc(Cn2cnc3c(Cl)nc(N)nc32)c1C,77.2
8,COc1ccc2c(Oc3ccc(NC(=O)c4c(C)n(CC(C)(C)O)n(-c5ccccc5)c4=O)nc3)ccnc2c1,112 ± 6.7
9,Nc1nc2c(ncn2COC(CO)CO)c(=O)[nH]1 [Ganciclovir],102
10,Cc1csc(-c2nnc(Nc3ccc(Oc4ncccc4-c4ccnc(N)n4)cc3)c3ccccc23)c1,111
11,CCCCCCCCCCCCCCCC(=O)OC[C@H](O)[C@H]1OC(=O)C(O)=C1O [Ascorbyl palmitate],114
12,N#C/C(=C\c1ccc(O)c(O)c1)C(=O)NCCCCc1ccccc1,87.8
13,CCN(CC)C(=O)c1ccc(O)c(OC)c1 [Ethamivan],98.3
14,Cc1noc(NS(=O)(=O)c2cccc3c(N(C)C)cccc23)c1C,95.7
15,NC(=O)Nc1cc(-c2cccc(F)c2)sc1C(=O)N[C@H]1CCCNC1,25.1
16,O=C(c1ccc(F)cc1)C1CCN(CCn2c(=O)[nH]c3ccccc3c2=O)CC1 [Ketanserin tartrate hydrate],112
17,O=C(c1ccc(F)cc1)C1CCN(CCn2c(=O)[nH]c3ccccc3c2=O)CC1 [Ketanserin tartrate],117
18,Nc1nccc(Oc2ccc(NC(=O)c3c[nH]cc(-c4ccc(F)cc4)c3=O)cc2F)c1Cl,100 ± 8.4
19,Cc1nc2c(-c3cnc(N)nc3)nc(N3CCOCC3)nc2n1C(C)C,59.6
20,Clc1ccc2c(c1)CCc1cccnc1C2=C1CCNCC1 [Desloratadine],107

row,Structure (SMILES),mean cytoplasmic OPP incorporation
1,O=C1NCC2(CCN(CCc3ccccc3)CC2)O1 [Fenspiride hydrochloride],91.6
2,CCS(=O)(=O)N1CC(CC#N)(n2cc(-c3ncnc4[nH]ccc34)cn2)C1,95.7
3,CN(C)CCOC(c1ccccc1)c1ccccc1.Cn1c(=O)c2[nH]c(Cl)nc2n(C)c1=O [Dimenhydrinate],94.4
4,CN(CCCN1c2ccccc2CCc2ccccc21)CC(=O)c1ccc(Cl)cc1 [Lofepramine],105
5,CC(=O)OCCN1C(=O)c2c(C)nc3ccc(S(=O)(=O)N4CCOCC4)cc3c2C1=O [Ivachtin],105
6,Cc1cc2nc3c(=O)[nH]c(=O)nc-3n(C[C@H](O)[C@H](O)[C@H](O)CO)c2cc1C [Riboflavin (Vitamin B2)],103
7,CCCOc1ccc2[nH]c(NC(=O)OC)nc2c1 [Oxibendazole],98.5
8,CCCOc1ccc2[nH]c(NC(=O)OC)nc2c1 [Oxibendazol],78.7
9,O=C1NC(=O)c2cc(Nc3ccccc3)c(Nc3ccccc3)cc21,104
10,CC(=O)O[C@@H]1C[C@H]2C(C)(C)C(=O)C=C[C@]2(C)[C@H]2CC[C@@]3(C)[C@H](c4ccoc4)OC(=O)[C@H]4O[C@]43[C@@]21C [Gedunin],113
11,O=C(O)CCc1ccc(NCc2cccc(Oc3ccccc3)c2)cc1,99.2
12,CC1CCN(CC[C@H]2CCCN2S(=O)(=O)c2cccc(O)c2)CC1,94 and 107
13,Nc1ncnc2c1ncn2[C@@H]1O[C@H](CO)[C@@H](O)[C@@H]1O [Vidarabine],97.8
14,CCOc1nc2cccc(C(=O)O)c2n1Cc1ccc(-c2ccccc2-c2nnn[nH]2)cc1 [Candesartan],95.3
15,CCOc1nc2cccc(C(=O)O)c2n1Cc1ccc(-c2ccccc2-c2nnn[nH]2)cc1 [Candesartan (Atacand)],103
16,O=c1[nH]cnc2nc[nH]c12 [Hypoxanthine],103
17,C=CC(=O)Nc1cccc(Oc2nc(Nc3ccc(N4CCN(C)CC4)cc3)ncc2Cl)c1,64.9
18,O=C[C@@H]1CCCN1C(=O)[C@@H]1CCCN1C(=O)OCc1ccccc1 [Z-Prolyl-prolinal],98
19,C[C@@](Cc1ccc(O)c(O)c1)(NN)C(=O)O [Carbidopa],96.6
